# Test results as given in the supplement of paper PMC8728848.
# The list shows a part of the results.
# Experiments:
# Assay in all cases: glycan array binding signal (z-score within array); higher = stronger binding
# Settings in all cases: glycan notation: IUPAC condensed, linker removed
# [1] = molecular target: Gal(b1-3)GlcNAc(b1-6)[Gal(b1-3)]GalNAc
# In short: (§1)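 Negative Z-scores can be read as non-binding. The Z-score is calculated within each array and then averaged across arrays of one protein sequence at different concentrations or buffers and across linkers. Arrays, 3228 in all, were curated from the Consortium for Functional Glycomics database and kept only where the protein sequence was available.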
# Gal(b1-3)GlcNAc6S = molecular target: Gal(b1-3)GlcNAc6S
# In short: as §1
# [2] = molecular target: Gal(b1-3)[Fuc(a1-4)]GlcNAc
# In short: as §1
# [3] = molecular target: Gal(b1-3)[Fuc(a1-4)]GlcNAc(b1-2)Man
# In short: as §1
# [4] = molecular target: Gal(b1-3)[Fuc(a1-4)]GlcNAc(b1-2)Man(a1-3)[Gal(b1-3)[Fuc(a1-4)]GlcNAc(b1-2)Man(a1-6)]Man(b1-4)GlcNAc(b1-4)[Fuc(a1-6)]GlcNAc
# In short: as §1
# [5] = molecular target: Gal(b1-3)[Fuc(a1-4)]GlcNAc(b1-3)Gal(b1-3)[Fuc(a1-4)]GlcNAc
# In short: as §1
# [6] = molecular target: Gal(b1-3)[Fuc(a1-4)]GlcNAc(b1-3)Gal(b1-4)[Fuc(a1-3)]GlcNAc
# In short: as §1
# [7] = molecular target: Gal(b1-3)[Fuc(a1-4)]GlcNAc(b1-6)GalNAc
# In short: as §1
# [8] = molecular target: Gal(b1-3)[GlcNAc(b1-6)]GalNAc
# In short: as §1
# [9] = molecular target: Gal(b1-3)[Neu5Ac(a2-6)]GalNAc
# In short: as §1
# [10] = molecular target: Gal(b1-3)[Neu5Ac(a2-6)]GlcNAc(b1-4)Gal(b1-4)Glc
# In short: as §1
# [11] = molecular target: Gal(b1-3)[Neu5Ac(b2-6)]GalNAc
# In short: as §1
# Gal(b1-4)Gal = molecular target: Gal(b1-4)Gal
# In short: as §1
# [12] = molecular target: Gal(b1-4)GalNAc(a1-3)[Fuc(a1-2)]Gal(b1-4)GlcNAc
# In short: as §1
# [13] = molecular target: Gal(b1-4)GalNAc(b1-3)[Fuc(a1-2)]Gal(b1-4)GlcNAc
# In short: as §1
# Gal(b1-4)Glc = molecular target: Gal(b1-4)Glc
# In short: as §1
# Gal(b1-4)Glc6S = molecular target: Gal(b1-4)Glc6S
# In short: as §1
# Gal(b1-4)GlcNAc = molecular target: Gal(b1-4)GlcNAc
# In short: as §1
# [14] = molecular target: Gal(b1-4)GlcNAc(a1-6)Gal(b1-4)GlcNAc
# In short: as §1
# Gal(b1-4)GlcNAc(b1-2)Man = molecular target: Gal(b1-4)GlcNAc(b1-2)Man
# In short: as §1
# [15] = molecular target: Gal(b1-4)GlcNAc(b1-2)Man(a1-3)Man(b1-4)GlcNAc(b1-4)GlcNAc
# In short: as §1
# [16] = molecular target: Gal(b1-4)GlcNAc(b1-2)Man(a1-3)[Gal(b1-4)GlcNAc(b1-2)Man(a1-6)]Man(b1-4)GlcNAc(b1-4)GlcNAc
# In short: as §1
# [17] = molecular target: Gal(b1-4)GlcNAc(b1-2)Man(a1-3)[Gal(b1-4)GlcNAc(b1-2)Man(a1-6)]Man(b1-4)GlcNAc(b1-4)[Fuc(a1-6)]GlcNAc
# In short: as §1
# [18] = molecular target: Gal(b1-4)GlcNAc(b1-2)Man(a1-3)[Gal(b1-4)GlcNAc(b1-2)Man(a1-6)][Gal(b1-4)GlcNAc(b1-4)]Man(b1-4)GlcNAc(b1-4)[Fuc(a1-6)]GlcNAc
# In short: as §1
# [19] = molecular target: Gal(b1-4)GlcNAc(b1-2)Man(a1-3)[Gal(b1-4)GlcNAc(b1-2)Man(a1-6)][GlcNAc(b1-4)]Man(b1-4)GlcNAc(b1-4)[Fuc(a1-6)]GlcNAc
# In short: as §1
# [20] = molecular target: Gal(b1-4)GlcNAc(b1-2)Man(a1-3)[GlcNAc(b1-2)Man(a1-6)]Man(b1-4)GlcNAc(b1-4)GlcNAc
# In short: as §1
# [21] = molecular target: Gal(b1-4)GlcNAc(b1-2)Man(a1-3)[GlcNAc(b1-4)][Gal(b1-4)GlcNAc(b1-2)Man(a1-6)]Man(b1-4)GlcNAc(b1-4)GlcNAc
# In short: as §1
# [22] = molecular target: Gal(b1-4)GlcNAc(b1-2)Man(a1-3)[Man(a1-6)]Man(b1-4)GlcNAc(b1-4)GlcNAc
# In short: as §1
# [23] = molecular target: Gal(b1-4)GlcNAc(b1-2)Man(a1-6)Man(b1-4)GlcNAc(b1-4)GlcNAc
# In short: as §1
# [24] = molecular target: Gal(b1-4)GlcNAc(b1-2)Man(a1-6)[GlcNAc(b1-2)Man(a1-3)]Man(b1-4)GlcNAc(b1-4)GlcNAc
# In short: as §1
# [25] = molecular target: Gal(b1-4)GlcNAc(b1-2)Man(a1-6)[Man(a1-3)]Man(b1-4)GlcNAc(b1-4)GlcNAc
# In short: as §1
# [26] = molecular target: Gal(b1-4)GlcNAc(b1-2)[Gal(b1-4)GlcNAc(b1-4)]Man(a1-3)[Gal(b1-4)GlcNAc(b1-2)Man(a1-6)]Man(b1-4)GlcNAc(b1-4)GlcNAc
# In short: as §1
# [27] = molecular target: Gal(b1-4)GlcNAc(b1-2)[Gal(b1-4)GlcNAc(b1-4)]Man(a1-3)[Gal(b1-4)GlcNAc(b1-2)[Gal(b1-4)GlcNAc(b1-6)]Man(a1-6)]Man(b1-4)GlcNAc(b1-4)GlcNAc
# In short: as §1
# [28] = molecular target: Gal(b1-4)GlcNAc(b1-2)[Gal(b1-4)GlcNAc(b1-4)]Man(a1-3)[GlcNAc(b1-4)][Gal(b1-4)GlcNAc(b1-2)Man(a1-6)]Man(b1-4)GlcNAc(b1-4)GlcNAc
# In short: as §1
# [29] = molecular target: Gal(b1-4)GlcNAc(b1-2)[Gal(b1-4)GlcNAc(b1-4)]Man(a1-3)[GlcNAc(b1-4)][Gal(b1-4)GlcNAc(b1-2)[Gal(b1-4)GlcNAc(b1-6)]Man(a1-6)]Man(b1-4)GlcNAc(b1-4)GlcNAc
# In short: as §1
# [30] = molecular target: Gal(b1-4)GlcNAc(b1-2)[Gal(b1-4)GlcNAc(b1-6)]Man(a1-6)[Gal(b1-4)GlcNAc(b1-2)Man(a1-3)]Man(b1-4)GlcNAc(b1-4)GlcNAc
# In short: as §1
# [31] = molecular target: Gal(b1-4)GlcNAc(b1-2)[Gal(b1-4)GlcNAc(b1-6)]Man(a1-6)[Gal(b1-4)GlcNAc(b1-2)Man(a1-3)]Man(b1-4)GlcNAc(b1-4)[Fuc(a1-6)]GlcNAc
# In short: as §1
# [32] = molecular target: Gal(b1-4)GlcNAc(b1-2)[Gal(b1-4)GlcNAc(b1-6)]Man(a1-6)[GlcNAc(b1-4)][Gal(b1-4)GlcNAc(b1-2)Man(a1-3)]Man(b1-4)GlcNAc(b1-4)GlcNAc
# In short: as §1
# [33] = molecular target: Gal(b1-4)GlcNAc(b1-2)[Gal(b1-4)GlcNAc(b1-6)]Man(a1-6)[GlcNAc(b1-4)][Gal(b1-4)GlcNAc(b1-2)[Gal(b1-4)GlcNAc(b1-4)]Man(a1-3)]Man(b1-4)GlcNAc(b1-4)[Fuc(a1-6)]GlcNAc
# In short: as §1
# [34] = molecular target: Gal(b1-4)GlcNAc(b1-3)Gal(b1-3)GalNAc
# In short: as §1
# [35] = molecular target: Gal(b1-4)GlcNAc(b1-3)Gal(b1-3)GlcNAc
# In short: as §1
# [36] = molecular target: Gal(b1-4)GlcNAc(b1-3)Gal(b1-4)Glc
# In short: as §1
# [37] = molecular target: Gal(b1-4)GlcNAc(b1-3)Gal(b1-4)GlcNAc
# In short: as §1
# [38] = molecular target: Gal(b1-4)GlcNAc(b1-3)Gal(b1-4)GlcNAc(b1-2)Man(a1-3)[Gal(b1-4)GlcNAc(b1-3)Gal(b1-4)GlcNAc(b1-2)Man(a1-6)]Man(b1-4)GlcNAc(b1-4)GlcNAc
# In short: as §1
# [39] = molecular target: Gal(b1-4)GlcNAc(b1-3)Gal(b1-4)GlcNAc(b1-2)Man(a1-3)[Gal(b1-4)GlcNAc(b1-3)Gal(b1-4)GlcNAc(b1-2)Man(a1-6)]Man(b1-4)GlcNAc(b1-4)[Fuc(a1-6)]GlcNAc
# In short: as §1
binder,measurement,setting,value
"DrGRIFIN (Danio rerio), Q6DGJ1 (protein) MTLRFEASCPDGLCPGWSVILKGETPPEASKFEINFLCDRDDRVAFHFNPRFTESDIICNSYMANRWGQEERCNHFPLGVEEPFQIEIYSDNDHFHVYIDKAKVMQYKHRVEDLKTITKLQVVNDVKISSLEITKKLFY",glycan array binding signal (z-score),[1],-0.189
same,glycan array binding signal (z-score),Gal(b1-3)GlcNAc6S,-0.164
same,glycan array binding signal (z-score),[2],-0.187
same,glycan array binding signal (z-score),[3],-0.194
same,glycan array binding signal (z-score),[4],-0.1
same,glycan array binding signal (z-score),[5],-0.17
same,glycan array binding signal (z-score),[6],-0.175
same,glycan array binding signal (z-score),[7],-0.191
same,glycan array binding signal (z-score),[8],-0.119
same,glycan array binding signal (z-score),[9],-0.177
same,glycan array binding signal (z-score),[10],0.075
same,glycan array binding signal (z-score),[11],-0.18
same,glycan array binding signal (z-score),Gal(b1-4)Gal,-0.207
same,glycan array binding signal (z-score),[12],-0.219
same,glycan array binding signal (z-score),[13],-0.175
same,glycan array binding signal (z-score),Gal(b1-4)Glc,-0.191
same,glycan array binding signal (z-score),Gal(b1-4)Glc6S,-0.201
same,glycan array binding signal (z-score),Gal(b1-4)GlcNAc,-0.203
same,glycan array binding signal (z-score),[14],-0.172
same,glycan array binding signal (z-score),Gal(b1-4)GlcNAc(b1-2)Man,-0.136
same,glycan array binding signal (z-score),[15],-0.202
same,glycan array binding signal (z-score),[16],-0.182
same,glycan array binding signal (z-score),[17],-0.164
same,glycan array binding signal (z-score),[18],-0.181
same,glycan array binding signal (z-score),[19],-0.15
same,glycan array binding signal (z-score),[20],-0.165
same,glycan array binding signal (z-score),[21],-0.164
same,glycan array binding signal (z-score),[22],-0.169
same,glycan array binding signal (z-score),[23],-0.171
same,glycan array binding signal (z-score),[24],-0.071
same,glycan array binding signal (z-score),[25],-0.162
same,glycan array binding signal (z-score),[26],-0.192
same,glycan array binding signal (z-score),[27],-0.137
same,glycan array binding signal (z-score),[28],-0.189
same,glycan array binding signal (z-score),[29],-0.192
same,glycan array binding signal (z-score),[30],-0.175
same,glycan array binding signal (z-score),[31],-0.168
same,glycan array binding signal (z-score),[32],-0.171
same,glycan array binding signal (z-score),[33],-0.136
same,glycan array binding signal (z-score),[34],-0.2
same,glycan array binding signal (z-score),[35],-0.187
same,glycan array binding signal (z-score),[36],0.006
same,glycan array binding signal (z-score),[37],-0.13
same,glycan array binding signal (z-score),[38],-0.12
same,glycan array binding signal (z-score),[39],-0.185
